# The list shows a part of the results.
# Tested on: PfHDP1 homeodomain (GST-tagged)
# Assay: gcPBM binding intensity (ln(normalized median fluorescence intensity)); higher = stronger DNA binding
# Procedure, shortened: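 DNA-binding domains from P. falciparum, fused to GST and produced in E. coli, were put on an Agilent 4 × 180k double-stranded probe array for 1 h in 1× PBS holding 1% milk, 0.2 mg/ml BSA, 0.5% salmon testes DNA and 0.03% Triton X-100. Probes were primer-extended, 36 bp long and drawn from intergenic genomic regions, with negative controls included. After Alexa488 anti-GST antibody detection and a 488 nm scan, binding intensity was set as the highest Masliner-normalised natural-log median intensity across replicate spots of either probe orientation.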
row,Sequence,gcPBM binding intensity (ln)
1,AATGATAAAAATAAATGTACAGAATGATATTTTTTT [XGTACX_site5976],6.39
2,AAAAAATTGTTTCCCTGTACTCAAAAAAAAAAAAAA [XGTACX_site8070],6.09
3,AAAAAAGAAAAGAAATGTACAGAGCTTATCTTTTTA [XGTACX_site5677],6.23
4,TTTTTTAATTTTACATGTACATACAGGTTTTTTTTT [XGTACX_site4539],6.69
5,TTCAATTTTACATGTAGTACATAAATTATACACAAA [XGTACX_site4946],6.56
6,TTATTCCTATTTGGATGTACATTTTAATATAAACAT [XGTACX_site4386],6.48
7,ATTTTTTTTCGTAATTGTTCTTAATGTTGAATTATA [CACACA_negctrl_site1135],6.73
8,TTTTCCTTTCACAATGGTACACAAATATACATGCAA [XGTACX_site7244],7.33
9,TAGTAATATGTATCCATACACACATACATTTTATTT [CACACA_site873],6.58
10,TAATTTTTATTCAGTTCACACACGCTTTAATATTAT [CACACA_site9147],6.62
11,AAAAAATATACATATTGTACATTTTTTATTAACACA [XGTACX_site6415],5.94
12,GTATAGTACAAATAAGTGCATATAAAAGAAATACAG,9.48
13,ATAAATTTACATTTTTTTTTTTTTTTTTTTTTTTTT [GTGCAC_negctrl_site689],7.14
14,ATTACCAAAAAAAGGTGTACAAATATAATTATGAAA [XGTACX_site44],7.12
15,ATTTTTTTATTTTGAAGTACATAAACTTTATATATA [XGTACX_site1746],6.39
16,ATTACATATGTCGCTTGTACGCATAATTTTTTTATA [XGTACX_site5782],7.01
17,ATTTAAAAAAAAAGACGTACATTTATATAGAATCCT [XGTACX_site6457],6.24
18,CAATTTATAAAGAAAACACACATATACCTATATACA [CACACA_site6710],6.44
19,TTTATATTTAAAGAAACATGCATTTATCATATATAC [TGCATGCA_site173],6.42

row,Sequence,gcPBM binding intensity (ln)
1,TACACGCATAAACACACACACACACCCATATATATA [CACACA_site8114],7.06
2,AAAAAAATAAAATACAAAATGGCTATACAAAATAAA [GTGCAC_negctrl_site535],6.64
3,TTTGTTGACGAACACACACACATACATATTTATATA [CACACA_site7141],6.8
4,TCTATAATATTTTTCACACACCATTTCCTTAAACAC [CACACA_site6747],6.78
5,TTATAAATAAAAAGAGTGCAATTATAAATATATATA,8.65
6,AAATAAAATATGAACAGTACTTTTGATATAACCATT [XGTACX_site1873],6.66
7,AAAAAAATACAAATATGTACACATATATATTTAAAA [XGTACX_site4729],6.31
8,TTATTCATACAATATCGTACATATATATATATATAT [XGTACX_site1185],9.24
9,TCTAATCTGGAGAAAAGTACATAGTATCTGGTAACA [XGTACX_site2540],6.34
10,GTACACCTATAATATACACACAACAAATATGCACAT [CACACA_site6603],10.2
11,ATTATATATATATATACACACACATATATATATATA [CACACA_site8373],9.24
12,GGAATAACCGGACACACACACACATATATATATATA [CACACA_site5874],9.34
13,ATTTAAAATAGAAGTTATATTTATATGGGTGAAAAA [GTGCAC_negctrl_site296],6.37
14,CAAAACAAAACGTATGCACACAATTAAAATATTAAA [CACACA_site5815],9.56
15,AAATGTTGAGCAGTACAAAAAAAAAAAAAAAAAAAA [GTGCAC_negctrl_site518],6.78
16,AAGATACCAATGAAATGTACATATATATAAATATAA [XGTACX_site2135],6.52
17,CATTTATATAAAAGAACACACATATAAAATATTATT [CACACA_site3601],6.49
18,TTTTTTTTTTAATTGGGTACATATATAATTTAAGAA [XGTACX_site2732],6.27
19,TATATATTATAAAATTGTACATATATTAAATTTTTT [XGTACX_site5852],6.33

row,Sequence,gcPBM binding intensity (ln)
1,AATAGTCGGGTGCATACACACCTTAAATATAATATA [CACACA_site8271],7.67
2,TTATAAAATATTTATGCATGTGAAGAATATTATAAA [TGCATGCA_site1047],6.54
3,GAAAAAAGTATCAAGGTGCGTATATACATCAAAATA,7.35
4,GGTGGGGAGGAGTAATGTACAAATTAACATATTATG [XGTACX_site6666],8.02
5,TTCTTACATGAGTGTACACACTTTTTTTCAGAAAAT [CACACA_site4215],9.04
6,ACACATAAATGAATAAATAAATAAATATAAATATAA [CACACA_negctrl_site1784],6.21
7,ATATCATTTTCCTGCACACATAAATTTATATAATAT [CACACA_site1048],8.7
8,TTTTGTTGAAAAGTAAGATATTCCAACATGTTTTTA [CACACA_negctrl_site391],6.13
9,TAACTAATATATAAAACACACATCATAAAAATATAA [CACACA_site768],6.69
10,AAAAGAACAATGAAGTGTACTAATAATTATTTATGT [XGTACX_site6649],6.68
11,TTTTATCATCTTTTTACATTATGTATAAATATTTTC [CACACA_negctrl_site206],6.78
12,AGCAAAACATAAAATAGTACACATTTAACAAAAAAA [XGTACX_site2921],6.54
13,ATATAATATATTTTTGAACACACAATATATATATAT [CACACA_site9368],8.82
14,AAAAATGAAAGTAAGACATGCATGGAATTTTTTTTA [TGCATGCA_site347],6.89
15,TTTTTTTTTTATGAAAGTACATATGAAAAATACGAA [XGTACX_site3451],6.53
16,ATATATGTGTATGTATGTACTTATATTTTTTTTTAT [XGTACX_site1733],6.27
17,TCCGTTATATATGTGTGTACATATAATATATCCTCA [XGTACX_site2588],6.8
18,GCAAATCAATTTTTTTTTAAAACTCATTTTTTCGTT [CACACA_negctrl_site1136],6.4
19,AACGTGTGGAGAATTATAAATGAGTAAAAAATATAT [XGTACX_negctrl_site562],6.74
